From the supplement of paper PMC12217912
Some of the results follow. Sequences were assembled here from the parent chain. Values near 0.05 are background.

B1: TEV protease; numbered along this chain (parent)
chain: MGESLFKGPRDYNPISSSICHLTNESDGHTTSLYGIGFGPFIITNKHLFRRNNGTLVVQSLHGVFKVKDTTTLQQHLVDGRDMIIIRMPKDFPPFPQKLKFREPQREERICLVTTNFQTKSMSSMVSDTSCTFPSGDGIFWKHWIQTKDGQCGSPLVSTRDGFIVGIHSASNFTNTNNYFTSVPKNFMELLTNQEAQQWVSGWRLNADSVLWGGHKVFMVKPEEPFQPVKEATQL

Variants of: B1
Assay: raw area under fraction-flipped curve 0-4 h after induction (AUC4h, not background-subtracted), DNA-recorder readout of cleavage of the substrate (dimensionless); higher = more cleavage of the substrate by the protease variant
Conditions: temperature: 34 °C; time window: 0-4 h after rhamnose induction
Description: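 In vivo DNA recorder in E. coli TOP10(DE3) ΔrhaA at 34 °C. Each TEVp single-site mutant (parent TEVp 0) is paired with a single-site variant of the 7-mer TEVs (canonical ENLYFQ|S). The substrate sits between flexible linkers in a Bxb1-sfGFP-TEVs-SsrA fusion, so cleavage stabilises Bxb1 and speeds flipping of a recombination array, read by NGS. The value is the raw area under the fraction-flipped curve over 0-4 h after rhamnose induction (AUC4h), with ≥20 reads per time point. It is not background-subtracted; inactive controls average about 0.047.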
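Further: Bxb1 expression induced with 0.2% (w/v) L-rhamnose at OD600 near 0.5, cultures sampled hourly, flipped fraction per protease–substrate barcode pair counted by paired-end Illumina sequencing.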

Variant	area with substrate ENLYAQS	area with substrate ENLYDQS	area with substrate ENLYEQS	area with substrate ENLYGQS	area with substrate ENLYHQS	area with substrate ENLYIQS	area with substrate ENLYKQS	area with substrate ENLYMQS	area with substrate ENLYNQS	area with substrate ENLYPQS	area with substrate ENLYRQS	area with substrate ENLYVQS	area with substrate ENLYWQS	area with substrate ENLYCQS	area with substrate ENLYLQS	area with substrate ENLYSQS	area with substrate ENLYYQS	area with substrate ENLYQQS	area with substrate ENLYTQS
G28R	0.062	0.0667	0.0662	0.0577	0.0635	0.115	0.0557	0.0739	0.0383	0.0549	0.0582	0.133	0.0717	–	–	–	–	–	–
G28A	–	0.0583	0.0528	0.0579	0.0627	–	0.0514	0.0623	0.0683	0.0627	0.0701	0.153	0.0594	0.0557	0.0787	0.0868	0.055	–	–
G28W	0.0536	0.0557	0.0584	0.0619	0.0646	0.0851	0.0566	0.0618	0.0579	0.052	0.055	0.083	0.0533	0.0701	0.0787	0.0641	0.0492	0.0541	–
G28P	0.0769	0.0459	0.0543	0.0564	0.0539	0.0771	0.0587	0.0528	–	0.0838	–	0.0702	0.0631	–	–	–	–	0.051	–
T176W	0.059	0.0575	0.0711	–	0.0603	0.0549	0.056	0.065	0.0518	–	0.0454	0.0513	0.0589	–	0.0667	0.059	–	0.0704	–
F173I	0.068	0.0568	0.0682	0.0679	0.0742	0.105	0.0582	0.0521	0.0492	0.0685	–	0.12	0.0933	–	0.085	0.0413	0.0716	–	0.0666
F226K	0.125	0.0645	0.061	0.077	0.0731	0.118	0.0552	0.0726	0.0658	0.0748	0.0766	0.12	0.101	0.0822	0.0734	0.0715	–	0.0384	–
Q151C	0.0826	0.0587	0.0709	0.066	0.0644	0.0867	0.0649	0.0961	0.0669	0.0619	0.0746	0.0886	0.0636	0.0819	0.0801	0.0773	0.051	0.0712	0.0774
R81D	–	0.057	–	0.0605	0.0662	0.0703	–	0.0573	–	0.0688	0.0642	–	0.0658	0.0554	–	0.0598	0.005	0.0442	–
K100S	0.0675	0.0576	0.0643	0.0998	0.0623	0.0738	0.0567	0.096	0.0541	0.0676	0.0594	–	0.0671	–	–	–	0.0528	0.0312	0.09
S60Q	–	0.0541	0.0443	0.0635	0.0593	–	0.0586	–	0.0644	–	–	–	0.0673	0.0727	0.0747	–	0.0542	0.0618	0.0982
S60D	–	0.0234	0.0512	0.0799	0.0637	–	–	0.0752	0.0576	0.0621	0.0507	0.106	0.0628	0.0669	–	–	0.0458	0.0655	0.0665
F133Q	–	–	0.0737	0.0719	0.0618	0.193	0.0592	0.0555	0.0607	–	–	–	–	0.0915	–	0.0892	0.0774	0.0669	–
A207E	–	0.0594	0.0613	0.0808	0.077	–	0.0854	–	0.0698	–	–	–	0.122	0.0961	–	–	–	0.0618	–
S17V	0.0552	0.0669	0.0579	0.067	0.0681	0.112	0.0615	0.0835	0.0719	0.0665	0.053	0.117	0.0713	0.0886	0.0738	0.0804	0.066	0.064	0.0708
S17K	0.0746	0.0635	0.073	0.0694	0.07	0.111	0.0576	0.0727	0.0708	0.0446	0.0677	0.13	0.119	0.0977	–	–	0.0648	0.0673	–
S17H	0.0882	0.0573	0.084	0.0799	0.0742	0.128	0.0585	–	0.0769	0.043	–	0.161	–	–	0.0532	0.0796	0.0633	0.0684	0.0929
P222Y	0.0868	–	0.062	–	0.0507	0.115	0.0063	0.0719	–	0.0776	–	0.109	0.0731	–	0.102	–	–	–	–
V126R	–	0.0627	0.0645	0.0553	0.0774	0.132	–	0.103	0.0668	0.0892	–	0.126	0.0823	0.117	–	0.0769	0.0806	0.0687	0.0811
G213W	0.0633	–	0.0435	0.0588	0.0574	0.0345	0.0335	0.0504	0.0615	0.0578	0.0573	0.0612	0.0527	0.0486	0.06	0.0621	–	0.0419	0.0651
K66V	–	0.0576	0.0649	–	0.0841	0.114	0.074	–	–	–	–	–	0.106	0.122	0.0762	0.0993	–	0.0535	–
F41L	–	0.0614	0.0643	0.0443	0.0624	0.0998	0.0594	0.103	0.0556	0.0727	0.0645	0.147	0.081	0.0752	0.118	0.0563	–	0.0622	0.0774
E195F	0.0598	0.0541	0.0681	0.0821	0.0559	–	0.0602	0.077	0.0661	0.0623	0.0572	0.128	0.0676	0.0827	–	0.0643	0.0517	0.0179	0.0719
S121V	0.08	0.0617	0.0671	0.0534	0.0761	0.125	0.0734	0.0608	0.0646	0.0576	–	0.0748	0.0859	–	0.084	–	0.0427	0.0662	0.0808
